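Compound exposure: 48 hours, 5 concentrations, 96-well plates. At the GI50, growth is halved.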 Activity calls are given as the source filed them. No stated cut-off is given here; in the data, active = GI50 up to about 1.1 µM and inactive = higher.

The subject of this test is NCI-H322M. The test is described as follows: NCI tumour cell line growth inhibition, 48 h.
With `Cc1c(OC(C)C(=O)O)ccc2c(-c3ccccc3)cc(=O)oc12` (centres undefined), the GI50 was inactive: > 100 µM.

As for `N#CC1(Nc2ccc(-c3ccc(NC4(C#N)CCCC4)cc3)cc2)CCCC1`, the GI50 is inactive: > 100 µM.

As for `CCc1nc(N)nc(N)c1-c1ccc2nn(-c3ccccc3)[n+]([O-])c2c1`, the GI50 was inactive: 3.79 µM.

In the case of `O=C1COc2cccnc2N1CCCCO`, the GI50 was inactive: > 100 µM.

In the case of `c1cc2nnc1SCCCSc1ccc(nn1)SCCCS2`, the GI50 is inactive: > 54.5 µM.

For `O=C1C(Cl)=C(N2CCN(CCOCCO)CC2)C(=O)c2c(O)ccc(O)c21`, the GI50 was inactive: 3.21 µM.

In the case of `CC(/C=C/c1ncccc1OCCCCCC(=O)O)=N\NC1=NCCN1`, the GI50 is inactive: > 100 µM.

Regarding `COC(=O)/C(=C\c1ccco1)P(=O)(OC)OC`, the GI50 is inactive: 32.3 µM.

Regarding `CCOP(=O)(/C=C/n1cnc2c(=O)n(C(C)=O)c(N)nc21)OCC`, the GI50 is inactive: > 100 µM.

Regarding `COc1ccc2c(c1)CCCN1Cc3cc(OC)c(OC)cc3CC21` (centres undefined), the GI50 is inactive: > 100 µM.

As to `O=C(O)/C(O)=C1/C=C(c2ccccc2)c2ccccc21`, the GI50 was inactive: 25.4 µM.

As for `O=NN(CC1(O)OCC(O)C(O)C1O)C(Cc1c[nH]c2ccccc12)C(=O)O` (centres undefined), the GI50 is inactive: > 100 µM.

On to `CC(C)C(Br)CC/C(CBr)=C(\Cl)CCl` (centres undefined), for which the GI50 is inactive: 14.7 µM.

With `Cc1cc(C)c(C2=NO[C@@H]3C(=O)N(c4ccc(Cc5ccc(N6C(=O)[C@H]7C(c8c(C)cc(C)cc8C)=NO[C@H]7C6=O)cc5)cc4)C(=O)[C@H]23)c(C)c1`, the GI50 is inactive: > 100 µM.

For the compound `CCC1(O)CC(CCN(Cc2ccccc2)C(=O)OCc2ccccc2)C(OCc2ccccc2)C1O` (centres undefined), the GI50 was inactive: 17.8 µM.

As to `O=C1C(c2ccccc2)=[N+]([O-])c2cc([N+](=O)[O-])ccc21`, the GI50 is inactive: 37.5 µM.

For `CN(C)CCNc1ccc(NCC[N+](C)(C)Cc2ccc([N+](=O)[O-])cc2)c2c1C(=O)c1ccccc1C2=O`, the GI50 was inactive: > 25 µM.

As for `N#Cc1ccc(-c2nc(C#N)c(N)o2)cc1`, the GI50 was inactive: > 10 µM.

As to `O=C(c1ccccc1)c1c(CC(O)c2ccncc2)n(C(=O)c2ccccc2)c2ccccc12` (centres undefined), the GI50 is inactive: 27.8 µM.

On to `CC1CC(NC2CCCCC2)=Nc2ccccc2N1Cc1ccccc1` (centres undefined), for which the GI50 is inactive: 9.79 µM.

Turning to `COc1cc2c(c(OC)c1OC)-c1[nH]ncc1CC2`, the GI50 was inactive: > 100 µM.

Consider `O=C(N/C(=C\c1cccc([N+](=O)[O-])c1)c1nc2c(O)nc(S)nc2[nH]1)c1ccccc1`, for which the GI50 is inactive: > 100 µM.

On to `C=CC(OCC)(OCC)OCC`, for which the GI50 is inactive: > 100 µM.

As for `O=C(/C=C/c1ccc(O)cc1)c1cc(Cl)ccc1O`, the GI50 is inactive: 47.4 µM.

Regarding `O=C(Nc1ccc(F)cc1)c1cc2ccc(O)cc2o/c1=N\c1ccccc1F`, the GI50 is inactive: 13.8 µM.

As for `C=CC1(c2ccc3ccccc3c2)OCC(CC)O1` (centres undefined), the GI50 was inactive: > 100 µM.

Turning to `O=C1/C(=C/c2ccccc2)NC(=S)N1CN1CCOCC1`, the GI50 is inactive: > 100 µM.

In the case of `Cn1c(C(C#N)c2nc(Cl)ncc2Br)nc2ccccc21` (centres undefined), the GI50 was inactive: > 100 µM.

Consider `CN1CCCS/C1=C1/SC(=S)N(c2ccccc2)C1=O`, for which the GI50 is inactive: > 100 µM.

On to `COc1cccc(/C=N/n2c(-c3ccccc3)n[nH]c2=O)c1`, for which the GI50 was inactive: > 100 µM.

As to `Cn1c2ccccc2n2c3ccccc3c(=O)c(C#N)c12`, the GI50 is inactive: 8.81 µM.

In the case of `CO/N=C(/C(=O)OC)c1ccccc1COc1cccc(C(F)(F)F)c1`, the GI50 is inactive: 26.1 µM.

As for `COC(=O)C1CCC(=O)N1/C(C)=N/NC(=O)Nc1ccc(Cl)c(Cl)c1` (centres undefined), the GI50 is inactive: > 100 µM.

In the case of `CC(C)(C)OC(=O)NC(Cc1c[nH]cn1)C(=O)N1CCCC1C(N)=O` (centres undefined), the GI50 is inactive: > 100 µM.

On to `O=C1C[C@@H]2[C@@H](C=CC23CCCC3)N1O`, for which the GI50 is inactive: > 100 µM.

As to `COC1CC(OC2C(C)OC(OC3C(C)OC(OC4C(C)OC(O[C@H]5CC[C@@]6(C)C(=CC[C@]7(O)[C@@H]6C[C@@H](OC(=O)/C=C/c6ccccc6)[C@@]6(C)[C@]7(O)CC[C@@]6(O)C(C)=O)C5)CC4OC)CC3OC)CC2OC)OC(C)C1O` (some centres undefined), the GI50 is inactive: > 12.5 µM.

Regarding `COC(=O)C#Cc1cccc(OC)c1OC`, the GI50 was inactive: 75.9 µM.

Regarding `NCc1ccc(O)c(O)c1`, the GI50 is inactive: > 100 µM.

With `Cn1ccnc1Sc1ccc(/C=N/NC(=O)c2ccccc2O)cc1[N+](=O)[O-]`, the GI50 was inactive: 65.6 µM.

For `CSc1nc2c(c(N3CCOCC3)n1)C(O)n1c(nc3ccccc31)S2` (centres undefined), the GI50 was inactive: > 100 µM.

On to `CCCCN(CCCC)C(=O)C(=O)C(C(=O)C(=O)OC)c1nc2ccccc2o1` (centres undefined), for which the GI50 was inactive: > 100 µM.

Regarding `Cc1cc(C)c2c(=N)c3ccccc3n(CCCCCCn3c4ccccc4c(=N)c4c(C)cc(C)nc43)c2n1`, the GI50 is inactive: 1.64 µM.

Consider `O=CNc1ccc(S(=O)(=O)c2ccc(NC=O)cc2)cc1`, for which the GI50 is inactive: > 100 µM.

Turning to `CC(C)c1ccc(/C=C2\CSCC3=C2N=C2SCC(=O)N2C3c2ccc(C(C)C)cc2)cc1` (centres undefined), the GI50 is inactive: > 100 µM.

For the compound `Cc1c(Cl)cccc1NC(=O)/C=C/c1ccccc1`, the GI50 is inactive: 76.2 µM.

Consider `CC1(C)O[C@@H](C[C@]2(C#N)C[C@H](CCl)OC(C)(C)O2)C[C@@H](C#N)O1`, for which the GI50 was inactive: > 100 µM.

Regarding `COC(=O)C1c2c(c3ccccc3n2C(=O)OC)CCN2CCC1C(S(=O)(=O)c1ccccc1)C2=O` (centres undefined), the GI50 is inactive: > 100 µM.

With `CCCCCCCSCC(O)COC(c1ccccc1)(c1ccccc1)c1ccccc1` (centres undefined), the GI50 was inactive: > 100 µM.

Consider `CSc1nc(Cl)c2c(n1)Sc1ncnn1C2O` (centres undefined), for which the GI50 is inactive: 16.1 µM.

Take `CC1C2CC(CC2O)C1(C)C` (centres undefined): the GI50 is inactive: > 100 µM.

Consider `CC1(O)CCC2(C#N)CCC1C2O` (centres undefined), for which the GI50 is inactive: > 100 µM.

Regarding `CSc1nc(SC)c2c(C)cn(Cc3ccccc3)c2n1`, the GI50 was inactive: 64.1 µM.

On to `O=C1CCC(c2ccccc2)=NN1c1nsc2ccccc12`, for which the GI50 was inactive: > 100 µM.

As for `C=C(Nc1ccc([N+](=O)[O-])cc1[N+](=O)[O-])c1c/c(=N\NC(N)=S)c2ccccc2o1`, the GI50 was inactive: 94.8 µM.

`NC(=S)N/N=C\c1ccc(OCc2cccc(COc3ccc(/C=N/NC(N)=S)cc3)n2)cc1`: the GI50 was inactive: 11.4 µM.

For `Cc1ccc(-c2n[nH]c(=O)n2/N=C\c2ccccc2)cc1`, the GI50 is inactive: 70.6 µM.

As to `CC(C)COC(=O)N1N=NC2C3CC(=O)C(O3)C21` (centres undefined), the GI50 was inactive: > 100 µM.

For the compound `CC(C)c1ccccc1SC1CC(=O)CC(Sc2ccccc2C(C)C)C12O[C@H](c1ccccc1)[C@@H](c1ccccc1)O2` (some centres undefined), the GI50 is inactive: > 100 µM.

As for `COC(=O)/C=C(/C)n1nc2ccccc2n1`, the GI50 is inactive: > 100 µM.

Take `COc1ccc2c(c1)c(=O)c1ccccc1n2/C=C/C(=O)O`: the GI50 is inactive: > 100 µM.

For `CN1CCN(C)C12C=CC=CC21CC1`, the GI50 was inactive: > 100 µM.

In the case of `CO[C@@H]1O[C@H](C(=O)c2ccccc2)[C@H]2OC(C)(C)O[C@@H]12`, the GI50 was inactive: > 100 µM.

Turning to `CCOc1cccc2sc(N)nc12`, the GI50 was inactive: > 100 µM.

Take `COc1cccc(N2C(=O)[C@H]3CC(C)c4c([nH]c5ccccc45)[C@H]3C2=O)c1` (some centres undefined): the GI50 is inactive: 91.6 µM.

`Cc1c(Cl)nc(Cl)nc1Cl`: the GI50 was inactive: 2.36 µM.

For the compound `Clc1ccc2c(c1)CC1C[N+]3=C(CCCCC3)C1=C2` (centres undefined), the GI50 was inactive: > 100 µM.

On to `COc1ccc(C(=O)CC(c2ccccc2)[C@H]2C(c3ccc(OC)cc3)=Nc3c(nc(SC)n(C)c3=O)NC2c2ccccc2)cc1` (some centres undefined), for which the GI50 was inactive: > 100 µM.

Turning to `O=C1C=C(Nc2ccc(Br)cc2)c2ccccc2C1=O`, the GI50 is inactive: 14.4 µM.

Turning to `C=C1C(=O)O[C@H]2C/C(C)=C/CC[C@@]3(C)O[C@](C)(CC[C@@H]3I)[C@@H](I)C[C@@H]12`, the GI50 is inactive: 8.55 µM.

For the compound `COc1cccc2c1C(=O)c1c(O)c3c(c(O)c1C2=O)C[C@@](O)(C(C)=O)CC3S(=O)(=O)O` (some centres undefined), the GI50 was inactive: > 100 µM.

As for `CC/C=C/C(CC)C/C(C)=C\[C@]1(CC)C[C@H](CC)[C@H](CC(=O)O)OO1` (some centres undefined), the GI50 is inactive: 1.71 µM.

On to `N#CC(C#N)=C1CCC2C(=C(C#N)C#N)CCC12` (centres undefined), for which the GI50 is inactive: > 100 µM.

For the compound `O=C(O)c1cc(=O)c2cc(C(=O)c3cccs3)c(Cl)c(Cl)c2o1`, the GI50 is inactive: > 100 µM.

`CCOC(=O)CP(=S)(S)c1ccccc1` (centres undefined): the GI50 is inactive: > 100 µM.

Regarding `C=C(C)C12OC1[C@@]1(C)C(=CC2=O)CCC(O)[C@@H]1C` (some centres undefined), the GI50 was inactive: 2.86 µM.

`O=C1/C(=C/c2cccc(Br)c2)Cc2ccccc21`: the GI50 was inactive: 55.1 µM.

With `Cc1[nH]n(C2=NCCN2)c(=O)c1Cc1ccccc1`, the GI50 was inactive: > 100 µM.

Regarding `CC(=O)OCCN(C1=NCCN1)/[N+](C=c1ccc(=C=[N-])cc1)=C/c1ccc(C#N)cc1`, the GI50 was inactive: > 100 µM.

For the compound `COC1C(O)C(C)OC(O[C@@H]2C[C@H]3CC[C@@H]4[C@H](CC[C@]5(C)[C@@H](C6=CC(=O)OC6)CC[C@]45O)[C@@]3(C)[C@H](O)C2)C1O` (some centres undefined), the GI50 is active: 0.0646 µM.

For `C=CC(OC(C)=O)c1ccc(OC(C)=O)cc1` (centres undefined), the GI50 is inactive: 16.2 µM.

In the case of `CC1=CC(=O)[C@@H](O)[C@]2(C)[C@H]3[C@@]4(O)OC[C@]35[C@H]([C@@H](C)[C@H]4O)[C@@H](O)C(=O)O[C@@H]5C[C@@H]12`, the GI50 is inactive: 2.61 µM.

`O=c1c2cc(I)ccc2nc(-c2cccs2)n1O`: the GI50 is inactive: 22.1 µM.

As to `CN(C)CCNc1ccc2nnn3c4ccc(O)cc4c(=O)c1c23`, the GI50 was inactive: 1.71 µM.

For `O=C1Cc2c([nH]c3cc(Br)ccc23)-c2ccccc2N1`, the GI50 is inactive: 12.1 µM.

Values taken from ChEMBL document CHEMBL1201862, “PubChem BioAssay data set” (2004).
